Out of some 310,000 compounds screened, about 14,000 (4.5%) showed an effect of 50% or more. The effect is printed as a negative number. The list shows a part of the results.
The compounds below were run against human ether-à-go-go-related gene (hERG) potassium channel (human, UniProt Q12809) (assay: primary screen, population patch clamp on CHO cells stably expressing hERG).
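Note: peak tail current of the secondary pulse compared with the same well before compound.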

Chain of human ether-à-go-go-related gene (hERG) potassium channel (Q12809 whole entry, looked up): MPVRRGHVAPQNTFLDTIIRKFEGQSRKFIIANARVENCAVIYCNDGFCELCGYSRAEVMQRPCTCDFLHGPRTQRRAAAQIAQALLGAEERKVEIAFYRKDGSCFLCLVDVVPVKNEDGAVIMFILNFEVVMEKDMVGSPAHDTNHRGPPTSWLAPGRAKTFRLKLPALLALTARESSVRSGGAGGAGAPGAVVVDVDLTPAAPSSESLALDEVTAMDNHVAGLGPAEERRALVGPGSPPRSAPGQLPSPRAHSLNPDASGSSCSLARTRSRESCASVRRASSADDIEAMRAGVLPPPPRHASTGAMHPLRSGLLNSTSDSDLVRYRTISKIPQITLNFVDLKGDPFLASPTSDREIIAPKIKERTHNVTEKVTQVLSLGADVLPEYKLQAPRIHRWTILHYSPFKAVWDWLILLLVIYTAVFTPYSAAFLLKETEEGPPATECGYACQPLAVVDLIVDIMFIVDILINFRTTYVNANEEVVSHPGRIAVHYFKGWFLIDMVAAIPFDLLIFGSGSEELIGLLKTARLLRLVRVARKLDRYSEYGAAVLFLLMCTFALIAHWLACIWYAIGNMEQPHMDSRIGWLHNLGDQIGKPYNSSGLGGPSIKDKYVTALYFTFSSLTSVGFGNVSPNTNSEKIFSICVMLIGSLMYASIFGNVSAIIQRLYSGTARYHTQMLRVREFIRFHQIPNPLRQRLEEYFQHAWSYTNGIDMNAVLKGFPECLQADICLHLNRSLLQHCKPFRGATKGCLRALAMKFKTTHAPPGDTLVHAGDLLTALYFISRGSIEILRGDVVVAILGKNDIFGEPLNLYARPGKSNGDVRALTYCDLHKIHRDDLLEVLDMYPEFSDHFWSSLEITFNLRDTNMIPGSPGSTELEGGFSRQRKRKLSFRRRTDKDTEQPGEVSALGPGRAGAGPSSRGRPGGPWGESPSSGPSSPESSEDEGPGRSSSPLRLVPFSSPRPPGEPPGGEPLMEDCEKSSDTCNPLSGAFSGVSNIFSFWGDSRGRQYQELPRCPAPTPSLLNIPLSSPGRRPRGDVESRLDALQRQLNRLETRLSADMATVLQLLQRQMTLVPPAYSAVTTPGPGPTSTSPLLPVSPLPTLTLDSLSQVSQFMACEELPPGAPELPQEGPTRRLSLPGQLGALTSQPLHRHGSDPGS

| SMILES | hERG current change (%, negative = inhibition) at 10uM [%] |
| --- | --- |
| CCOCCCNC(=O)C1CCN(S(=O)(=O)c2c(C)noc2/C=C\c2ccc(OC)cc2)CC1 | 0.39 |
| Cc1cccc(NC(=O)CN(C)S(=O)(=O)c2cnc[nH]2)c1 | 9.84 |
| CCN(CC)c1nc(N)c2c(N)nc(OC)cc2c1C#N | 1.77 |
| O=C(O)CCc1ccc(-c2ccc(F)cc2)n1Cc1ccco1 | -0.928 |
| CCCCN(Cc1ccco1)C(=O)C1CCCN(c2ncnc3c2nc2n3CCCCC2)C1 (stereo not shown) | -46 |
| CC1CCCCC12NC(=O)N(CC(=O)NCCc1c[nH]c3ccccc13)C2=O (stereo not shown) | -25.8 |
| Cc1ccsc1/C=C/C(=O)O | 20 |
| CC(C)CNC(=O)c1cccc(NC(=O)C2CCCO2)c1 (stereo not shown) | 12.6 |
| Cc1ccc(N2CC(C(=O)Nc3nnc(SCC(N)=O)s3)CC2=O)cc1 (stereo not shown) | 18.8 |
| Cc1cccc(-c2onc3ccc(C4(C)OCCO4)cc23)c1 | -1.6 |
| CCOC(=O)c1cc(NC(=O)c2c(C)noc2C)cc(C(=O)OCC)c1 | -3.5 |
| CCOC(=O)c1ccc(NC(=O)CN(Cc2ccc(Cl)cc2)S(C)(=O)=O)cc1 | -6.57 |
| O=C(NC1CCCCCC1)c1cccc(N2CCCC2=O)c1 | 4.39 |
| O=C(CSc1nnc(CNC(=O)c2ccc(F)cc2)o1)c1ccccc1 | 3.47 |
| CN(C)S(=O)(=O)c1ccc(NC(=O)COc2ncnc3c2cnn3-c2ccccc2)cc1 | -19.8 |
| CCC(C)NC(=S)Nc1ccc(C(=O)OC)cc1 (stereo not shown) | 15 |
| O=C(NCCc1ccccc1)C1CCCN(S(=O)(=O)c2cccs2)C1 (stereo not shown) | -28.9 |
| Cc1c(OCC(=O)NC(Cc2ccc(Cl)cc2)C(=O)O)ccc2c3c(c(=O)oc12)CCCC3 (stereo not shown) | 20 |
| O=C(CCCN1C(=O)/C(=C\c2cccs2)SC1=S)NNC(=O)c1ccncc1 | 0.291 |
| O=C(CSc1nc(=O)n(CCCN2CCOCC2)c2c1CCCC2)Nc1ccccc1Cl | -42.9 |
| CCN(CC)S(=O)(=O)c1cc(C)c(C)cc1Br | -14.8 |
| CS(=O)(=O)N1CCC(Oc2cccc(C(=O)NCCCC3CCCC3)c2)CC1 | -30.3 |

| SMILES | hERG current change (%, negative = inhibition) at 10uM [%] |
| --- | --- |
| Cc1cc(-c2ccc(C)c(S(=O)(=O)N3CCN(c4ccc(F)cc4)CC3)c2)on1 | -8.14 |
| O=C(Cn1ncc(Cl)c(Cl)c1=O)c1ccc(Cl)cc1 | -15.8 |
| CCn1nc(CC(C)C)cc1C(=O)N1CCCC(Nc2ccc(F)cc2)C1 (stereo not shown) | -3.94 |
| Cc1ccc(N2CS(=O)(=O)/C(=C/N(C)C)C2=O)cc1 | -5.73 |
| COc1ccc(NC(=O)Cc2c(C)n(C(=O)c3ccc(Cl)cc3)c3ccc(OC)cc23)cc1 | 20.8 |
| Cc1cc(Nc2ccccc2)n(-c2cccc(Cl)c2)n1 | -43.1 |
| O=C(/C=C/c1ccco1)Nc1ccc(-c2nc3ccccc3[nH]2)cc1 | -0.11 |
| O=C(NNC(=O)c1ccccc1Cl)c1ccncc1 | -1.7 |
| COc1ccc(NC(=O)CNC(=O)N2CC(=O)Nc3ccccc32)cc1OC | 25.9 |
| COc1ccc(CC(=O)Oc2ccccc2Cl)cc1S(=O)(=O)N1CCOCC1 | 8.06 |
| CC(C)(NO)/C(=N/O)c1ccc(Br)cc1 | 0.417 |
| COc1ccc(C(=O)Cc2ccc(OC)c(OC)c2)cc1 | 4.74 |
| CN(Cc1ccccc1)C(=O)CN(C)S(=O)(=O)c1ccc(F)cc1 | 1.59 |
| CCOC(=O)C(C(=O)OCC)c1cc(Br)c2noc3c2c1C(=O)c1ccccc1-3 | 13.6 |
| O=C(O)c1cccc(N(CCO)CCO)c1 | -1.13 |
| CCC(=O)N1CCc2cc(S(=O)(=O)N3CCN(c4ccccc4Cl)CC3)ccc21 | 12.7 |
| Cc1ccc(NC(=S)N2CCCCCC2)c(C)c1 | -32.1 |
| Cc1ccc(S(=O)(=O)NCC(=O)OCc2ccccc2Br)cc1 | 0.59 |
| COc1ccc(S(=O)(=O)NCC(=O)NCc2cc(=O)n(C)c(=O)n2C)cc1F | 12.6 |
| Cc1nn(-c2ccccc2)c(C)c1/C=N/n1c(-c2ccccc2Br)n[nH]c1=S | -9.36 |
| CCOC(=O)N1CCN(C(=O)c2oc3ccc(S(=O)(=O)N(CC)CC)cc3c2C)CC1 | -12 |
| Cc1cc(N(CCO)CCO)ccc1C(c1ccc(N(CCO)CCO)cc1C)c1ccccc1Cl | -0.487 |

| SMILES | hERG current change (%, negative = inhibition) at 10uM [%] |
| --- | --- |
| Cc1cc(N/C(=N\S(=O)(=O)c2ccc(F)cc2F)c2ccccc2)no1 | 1.05 |
| Cc1cc(C(=O)Nc2sc3c(c2C#N)CCC(C)C3)no1 (stereo not shown) | 1.44 |
| NC(=O)C1CCN(C(=O)/C=C/c2cc(Br)ccc2F)CC1 | 2.78 |
| Cc1ccccc1N=C1c2ccccc2C(=O)C1[N+](=O)[O-] (stereo not shown) | -9.75 |
| O=C(Nc1ccccc1F)N(CCCN1CCOCC1)Cc1cc2cc3c(cc2[nH]c1=O)OCCO3 | -4.62 |
| O=C1Nc2ccc(Br)cc2C1=Nc1ccc(-c2nnc3n2CCCCC3)cc1 | 6.74 |
| CC1CCCCC1N=CC1=C(O)CC(C)(C)CC1=O (stereo not shown) | -12.9 |
| Cc1cccc(/C=N/c2sc3c(c2C#N)CCN(Cc2ccccc2)C3)c1O | -12.2 |
| CCOc1ccc(CN2CCNC(=O)C2CC(=O)NCCc2cnccn2)cc1 (stereo not shown) | 15 |
| Cc1oc(-c2ccc(Cl)cc2)nc1CN1CCC(C(=O)NCCCN2CCCC(C)C2)CC1 (stereo not shown) | -16.5 |
| c1cnn(-c2nc(N3CCOCC3)nc(N3CCOCC3)n2)c1 | 0.156 |
| CC(C)[C@H](NC(=O)c1ccccc1)C(=O)OCc1nc2scc(-c3ccccc3)c2c(=O)[nH]1 | 1.74 |
| COc1ccc(Nc2cc(C(=O)NCCCN3CCN(C)CC3)c3ccccc3n2)c(OC)c1 | 6.82 |
| O=S(=O)(c1ccccc1)N(CC(O)CN1CCCC1)c1ccccc1 (stereo not shown) | -19 |
| O=C(COc1cccc2cccnc12)NCc1cccs1 | 9.76 |
| CCCN(CC1CC1)C(=S)Nc1ccc(Oc2ccccc2)cc1 | -4.88 |
| CC(C)(C)S(=O)(=O)c1ccccc1-c1noc(-c2ccccc2)c1C(N)=O | 2.58 |
| O=C(Nc1nc2ccccc2[nH]1)Nc1ccccc1F | 18.4 |
| N#C/C(=C/c1ccccc1[N+](=O)[O-])C(=O)NCc1ccco1 | -11.4 |
| Cc1cc(NC(=O)CSc2nc3ccccc3n2CC(=O)N2CCCCC2)no1 | -12.2 |
| Cc1ccc(SCC(=O)Nc2ccc(-c3nnc(-c4ccco4)o3)cc2)cc1 | -0.93 |
| O=C(CCc1ccccc1)N=C1SC2CS(=O)(=O)CC2N1c1cccc(F)c1 (stereo not shown) | -1.95 |

| SMILES | hERG current change (%, negative = inhibition) at 10uM [%] |
| --- | --- |
| CCc1ccc(-n2c(SCC(=O)N3Cc4ccccc4CC3C(=O)O)nnc2-c2ccncc2)cc1 (stereo not shown) | 16.7 |
| Cc1cc(=O)n(C)c(=O)n1CCCCCCN1CCCC1.O=C(O)C(=O)O | 8.96 |
| Cc1ccc(NC(=S)N2CCN(S(=O)(=O)c3ccc(C)cc3)CC2)cc1 | 10.8 |
| CCC(C(=O)n1cccc1C#N)c1ccccc1C (stereo not shown) | 6.49 |
| OCCN(Cc1ccccc1)Cc1ccc(Cl)cc1Cl | -14 |
| CCOc1ccccc1OCC(=O)Nc1cc(S(=O)(=O)N2CCCCC2)ccc1N1CCN(CC)CC1 | -71.5 |
| Cc1nnc2sc(COc3ccccc3)nn2c1=O | 18.7 |
| Cc1ccc(NC(=O)/C=C\C(=O)NCC(=O)O)cc1 | 0.434 |
| O=C(CCCN=C1NS(=O)(=O)c2ccccc21)OCC(=O)c1ccccc1Cl | -12.8 |
| NC(=O)c1cc(S(=O)(=O)Nc2cccc(F)c2)co1 | 2.91 |
| Cc1c(NC(=O)C(C)OC(=O)c2cc(Cl)ccc2O)c(=O)n(-c2ccccc2)n1C (stereo not shown) | 15.3 |
| O=C(CSc1nc2ccccc2[nH]1)NC1CCS(=O)(=O)C1 (stereo not shown) | -6.52 |
| CCOC(=O)C(O)(c1ccc(N(C)C(=O)c2ccc(Cl)c(Cl)c2)cc1)C(F)(F)F (stereo not shown) | -21.9 |
| Cc1cc(Br)c2[nH]cc(CCNC(=O)c3ccco3)c2c1 | -27.4 |
| Cc1noc(C)c1CNCc1ccccc1.O=C(O)C(=O)O | 19.7 |
| CCCCN(C(=O)c1cccc(-n2cccc2)c1)c1c(N)n(CCC)c(=O)[nH]c1=O | 6.24 |
| Cc1ccc(S(=O)(=O)N2CN(Cc3ccco3)c3nc4ccccc4nc32)cc1C | 2.04 |
| Cc1ccc(S(=O)(=O)N2CCN(S(=O)(=O)c3ccc(C)cc3)C2c2ccccc2)cc1 | -3.36 |
| COC(=O)c1ccc(C(=S)N2CCOCC2)cc1 | -10.5 |
| O=C(NCC1CCCO1)c1ccc(CNS(=O)(=O)c2cccc(Cl)c2)cc1 (stereo not shown) | 17.8 |
| Cc1cc(Br)ccc1OCC(=O)NNC(=O)Cc1ccccc1 | 4.47 |
| CCCCCC(O)(CCCCC)C(=O)NNc1ccccc1 | 0.155 |

From paper PMC4336329 (PLoS ONE, 2015)
